This is one part of the list.
These molecules were tested on T1, C. trachomatis L2/434/Bu expressing GFP (CTL2-GFP). Details: total inclusion area; 28.5 h, 10 µM; inhibitor.
T1 construct: L2/434/Bu GFP intracellular growth in HeLa cells
Set-up: species or system HeLa; C. trachomatis total inclusion area by high-content imaging, normalised to DMSO
Outline: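 Imaging read-out: GFP inclusions and Hoechst nuclei captured by high-content imaging after fixation. Inclusion area/number = chlamydial growth; nuclei count = host cell viability. MIC calculated per earlier method.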

SMILES | % of control remaining
O=C(O)CCc1ccc(-c2ccc(F)cc2)n1-c1cc(Cl)ccc1O [CBK131891] | 84.7175
COc1cc2c(cc1S(N)(=O)=O)C(=O)CCC2 [CBK010234] | 83.4546
c1ccc(CN2CCC[C@H]2c2nc(-c3ccc(-c4cncnc4)nc3)no2)cc1 [CBK288891] | 120.598
Cc1c(C)n(Cc2ccco2)c2ncnc(NCC(=O)O)c12 [CBK307563] | 95.2417
O=C(NCC(c1ccccc1)c1ccccc1)N1CCCCC1CO (stereo not shown) [CBK156186] | 82.6432
CC1CCc2noc(C3CCN(C(=O)c4ccnn4C)CC3)c2C1 (stereo not shown) [CBK285232] | 63.5265
CN(C)S(=O)(=O)N1CCN(Cc2ccccc2)CC1 [CBK263638] | 113.383
O=C(c1ccc2c(c1)OCCO2)N1CCC2(CCN(C(=O)c3cc(F)c(F)cc3F)C2)C1 (stereo not shown) [CBK131410] | 93.4398
CN1CCCC(C(O)c2ccccc2)C1 (stereo not shown) [CBK012472] | 88.3399
COc1ccc([C@H]2CN(Cc3ccccc3)C[C@@H]2NC(=O)c2ccco2)cc1OC [CBK286478] | 82.7096
Cc1ccc(-c2ncc(OCCN3CCCC3=O)nc2N)c(C)c1 [CBK145127] | 108.244
O=C(c1[nH]c2ccccc2c1NS(=O)(=O)/C=C/c1ccccc1)N1CCOCC1 [CBK050068] | 58.1527
Cn1cc(CCNC(=O)N2CCN(Cc3ccsc3)CC2)cn1 [CBK305692] | 77.6711
O=c1cc(O)c2sc3nc(-c4ccco4)cc(C(F)(F)F)c3c2[nH]1 [CBK270223] | 54.6599
Cc1cc(C)n2nc(SCc3nc4sc(C(=O)O)c(C)c4c(=O)[nH]3)nc2n1 [CBK297482] | 83.4078
Cc1cc(C)n(C(=O)CCNS(=O)(=O)c2ccc(Cl)cc2)n1 [CBK269348] | 88.7586
NC(=O)CCN1CCc2ccccc2C1 [CBK138325] | 94.1979
Cc1ccc(-n2ncc3c(=O)n(CC(=O)Nc4ccc(C)cc4C)cnc32)cc1 [CBK287535] | 114.144
O=C(Cc1csc(-c2c(Cl)cccc2Cl)n1)NC[C@H]1CC[C@H](C(=O)O)CC1 [CBK299767] | 109.083
CC(C)Nc1nccnc1OCCc1c[nH]c2ccccc12 [CBK115647] | 100.181

SMILES | % of control remaining
CS(=O)(=O)Nc1ccc(CNC(=O)c2ccc3[nH]ccc3c2)cc1 [CBK161747] | 100.816
Cc1cc(C)cc(Nc2cc(C)n3c(=O)[nH]nc3n2)c1 [CBK288380] | 88.2022
Cc1oc2c(c1C(=O)N(C)CCN1CCCCC1)CCCC2 [CBK281907] | 95.8678
Cc1ccc(N(CC(=O)Nc2ccc(Br)c(C)c2)S(=O)(=O)c2ccc(C)cc2)cc1 [CBK264038] | 115.202
C=CCOc1c(Br)cc(CNc2cccc(C(=O)O)c2)cc1OC [CBK074581] | 69.8665
O=S(=O)(CC(F)(F)F)Nc1ccc(N2CCNCC2)c2ccccc12 [CBK059354C] | 68.1176
Cc1c(Cl)cc(C(C)C)c(O)c1CNC(=O)CSc1nnc(-c2cccs2)n1C [CBK267416] | 92.0579
COc1cccc(C(C(F)(F)F)P(C)(=O)O)c1 (stereo not shown) [CBK262393] | 92.7049
COc1ccnc(N2CCCN(Cc3ncc(Cl)n3C)CC2)n1 [CBK305152] | 36.9997
O=C(c1nc2ccccc2[nH]1)N1CCc2ccccc21 [CBK200411] | 85.9732
N#CC1CCCc2c1[nH]c1ccccc21 (stereo not shown) [CBK098397] | 70.8629
c1ccc2c(c1)N1CCCN=C1N2CCN1CCOCC1 [CBK278300C] | 87.5478
CCN1CCN(C(=O)c2c(C)noc2C)CC1 [CBK200374] | 100.574
Cc1oc2nc(CSc3ccc4ccccc4c3)[nH]c(=O)c2c1C(=O)O [CBK296645] | 49.9425
CCN1CCN(CC(=O)C(C#N)c2ccccc2)CC1 (stereo not shown) [CBK269423] | 99.9959
Nc1ncc(-c2ccco2)nc1NCC1CCOCC1 [CBK063825] | 93.7315
CCOC(=O)CSc1c2cc3c(nc2nc(=O)n1Cc1ccccc1)CC(C)(C)OC3 [CBK018608] | 51.8395
O=C(O)CSc1c(NC(=O)c2ccccc2)sc2c1CCCC2 [CBK261062] | 105.829
Clc1ccc(CN2CCN(Cc3ccc(Cl)cc3)C2c2ccncc2)cc1 [CBK265207] | 108.265
O=C(Nc1ccc(S(=O)(=O)NCc2ccncc2)cc1)c1ccccc1Cl [CBK269664] | 59.0743
